Source: patent US20260274891A1, “¿ OPIOID RECEPTOR AGONIST AND USE THEREOF” (CHENGDU AODA BIOTECHNOLOGY CO., LTD., priority 2023, published 2026)
Not every detail of the peptide structures is certain; ends, links or a residue may be inferred. Bridge positions count the residues as written; N and C are the ends. Square brackets hold non-standard residues; d marks the D form. Side chains are listed from the residue outwards. Peptide text beside a SMILES is read from it. I, II: the chains in the order shown. * marks the point of attachment. X18 = NCCCC[C@@H](NC(=O)COCCOCCOCCOCCNC(=O)C1(N)CCN(*)CC1)C(N)=O; X27 = NCCCC[C@H](NC(=O)COCCOCCOCCOCCNC(=O)C1(N)CCN(*)CC1)C(=O)O; X29 = NCCCC[C@H](NC(=O)COCCOCCOCCOCCNC(=O)C1(N)CCN(*)CC1)C(N)=O; X8 = NCCCC[C@@H](NC(=O)COCCOCCOCCOCCNC(=O)C1(N)CCN(*)CC1)C(=O)O; X25 = NCCCC[C@@H](NC(=O)COCCOCCOCCNC(=O)C1(N)CCN(*)CC1)C(N)=O; X16 = NCCCC[C@H](NC(=O)COCCOCCOCCNC(=O)C1(N)CCN(*)CC1)C(N)=O; X19 = NCCCC[C@H](NC(=O)COCCOCCOCCNC(=O)C1(N)CCN(*)CC1)C(=O)O; X7 = NCCCC[C@@H](NC(=O)COCCOCCOCCNC(=O)C1(N)CCN(*)CC1)C(=O)O; X11 = NCCCC[C@@H](NC(=O)COCCOCCNC(=O)C1(N)CCN(*)CC1)C(N)=O; X20 = NCCCC[C@@H](NC(=O)COCCOCCNC(=O)C1(N)CCN(*)CC1)C(=O)O; X12 = CCOc1ccc(C[C@@H](NC(=O)[C@H](N)Cc2ccccc2)C(=O)*)cc1; X26 = NCCCC[C@@H](NC(=O)CNC(=O)C1(N)CCN(*)CC1)C(=O)O; X14 = NCCCC[C@H](NC(=O)CNC(=O)C1(N)CCN(*)CC1)C(N)=O; X23 = NCCCC[C@H](NC(=O)CNC(=O)C1(N)CCN(*)CC1)C(=O)O; Api = NC1(C(=O)O)CCNCC1

Molecular target: T1, human κ opioid receptor (OPRK1) (Homo sapiens, UniProt P41145)
T1 construct: expressed in transfected cells; host or cells: CHO-K1
Test: Determination of activities of κ receptor agonists: inhibition of forskolin-stimulated cAMP release (HTRF) in stably transfected CHO-K1 cells
Type: cell-based
Conditions: for EC50: CHO-K1 cell line stably expressing opioid receptors, forskolin-stimulated cAMP, HTRF; for Relative Activity %: relative to Difelikefalin = 100.0
Excerpt: Gi-coupled human κ opioid receptor (OPRK1), upon stimulation with its specific opioid receptor agonists, can inhibit the intracellular adenylate cyclase pathway, and decrease cAMP levels. Forskolin can stimulate cAMP release in cell lines highly expressing opioid receptors. By stimulating cell lines stably transfected with opioid receptors, the inhibitory effect of a test compound on forskolin-stimulated cAMP release can be measured to determine the activity of the compound. The relative light units (RLU) from the cells after stimulation with different doses were measured via the homogeneous time-resolved fluorescence technique (HTRF), and the EC50 value of the agonist was subsequently calculated. This activity determination method is a currently commonly used method for determining the activities of opioid receptor agonists at home and abroad.
A CHO-K1 cell line stably expressing opioid receptors was used. Stably transfected cells were stimulated with various concentrations of agonists (under the stimulation of a certain concentration of forskolin). The relative light units from the cells after stimulation with different doses were measured, from which the EC50 value of the agonist was subsequently obtained by calculation.

T1 sequence (P41145 whole entry): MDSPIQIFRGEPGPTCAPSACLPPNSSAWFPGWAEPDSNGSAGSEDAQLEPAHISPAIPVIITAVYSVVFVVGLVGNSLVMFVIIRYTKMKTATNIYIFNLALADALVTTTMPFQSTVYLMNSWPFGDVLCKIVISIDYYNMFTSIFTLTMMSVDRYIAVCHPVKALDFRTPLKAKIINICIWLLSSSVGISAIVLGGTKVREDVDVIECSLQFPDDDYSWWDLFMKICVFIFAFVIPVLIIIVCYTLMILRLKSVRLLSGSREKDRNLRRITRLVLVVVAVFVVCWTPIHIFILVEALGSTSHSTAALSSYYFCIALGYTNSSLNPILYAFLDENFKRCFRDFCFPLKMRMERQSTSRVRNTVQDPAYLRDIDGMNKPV

| SMILES | EC50 [nM] | Relative Activity % [%] |
| --- | --- | --- |
| CCOc1ccc(C[C@@H](NC(=O)[C@H](N)Cc2ccccc2)C(=O)N[C@H](CC(C)C)C(=O)N[C@H](CCCCN)C(=O)N2CCC(N)(C(=O)NCCOCCOCC(=O)N[C@H](CCCCN)C(N)=O)CC2)cc1 [Compound 33, D-Phe-D-Tyr(Et)-D-Leu-D-Lys-4-aminopiperidine-4-carboxamide-PEG2CH2CO -D-Lys-NH2] (H-[dF][dY](Et)[dL][dK]-X11) | 0.0536 | 1132.8 |
| CCOc1ccc(C[C@@H](NC(=O)[C@H](N)Cc2ccccc2)C(=O)N[C@H](CC(C)C)C(=O)N[C@H](CCCCN)C(=O)N2CCC(N)(C(=O)NCCOCCOCC(=O)N[C@H](CCCCN)C(=O)O)CC2)cc1 [Compound 34, D-Phe-D-Tyr(Et)-D-Leu-D-Lys-4-aminopiperidine-4-carboxamide-PEG2CH2CO -D-Lys-OH] (H-[dF][dY](Et)[dL][dK]-X20) | 0.053 | 1145.7 |
| CCOc1ccc(C[C@@H](NC(=O)[C@H](N)Cc2ccccc2)C(=O)N[C@H](CC(C)C)C(=O)N[C@H](CCCCN)C(=O)N2CCC(N)(C(=O)NCCOCCOCCOCC(=O)N[C@@H](CCCCN)C(N)=O)CC2)cc1 [Compound 35, D-Phe-D-Tyr(Et)-D-Leu-D-Lys-4-aminopiperidine-4-carboxamide-PEG3CH2CO-Lys-NH2] (H-[dF][dY](Et)[dL][dK]-X16) | 0.0549 | 1106.0 |
| CCOc1ccc(C[C@@H](NC(=O)[C@H](N)Cc2ccccc2)C(=O)N[C@H](CC(C)C)C(=O)N[C@H](CCCCN)C(=O)N2CCC(N)(C(=O)NCCOCCOCCOCC(=O)N[C@@H](CCCCN)C(=O)O)CC2)cc1 [Compound 36, D-Phe-D-Tyr(Et)-D-Leu-D-Lys-4-aminopiperidine-4-carboxamide-PEG3CH2CO-Lys-OH] (H-[dF][dY](Et)[dL][dK]-X19) | 0.0552 | 1100.0 |
| CCOc1ccc(C[C@@H](NC(=O)[C@H](N)Cc2ccccc2)C(=O)N[C@H](CC(C)C)C(=O)N[C@H](CCCCN)C(=O)N2CCC(N)(C(=O)NCCOCCOCCOCC(=O)N[C@H](CCCCN)C(N)=O)CC2)cc1 [Compound 37, D-Phe-D-Tyr(Et)-D-Leu-D-Lys-4-aminopiperidine-4-carboxamide-PEG3CH2CO-D-Lys-NH2] (H-[dF][dY](Et)[dL][dK]-X25) | 0.0561 | 1082.4 |
| CCOc1ccc(C[C@@H](NC(=O)[C@H](N)Cc2ccccc2)C(=O)N[C@H](CC(C)C)C(=O)N[C@H](CCCCN)C(=O)N2CCC(N)(C(=O)NCCOCCOCCOCC(=O)N[C@H](CCCCN)C(=O)O)CC2)cc1 [Compound 38, D-Phe-D-Tyr(Et)-D-Leu-D-Lys-4-aminopiperidine-4-carboxamide-PEG3CH2CO-D-Lys-OH] (H-[dF][dY](Et)[dL][dK]-X7) | 0.0554 | 1096.0 |
| CCOc1ccc(C[C@@H](NC(=O)[C@H](N)Cc2ccccc2)C(=O)N[C@H](CC(C)C)C(=O)N[C@H](CCCCN)C(=O)N2CCC(N)(C(=O)NCCOCCOCCOCCOCC(=O)N[C@@H](CCCCN)C(N)=O)CC2)cc1 [Compound 39, D-Phe-D-Tyr(Et)-D-Leu-D-Lys-4-aminopiperidine-4-carboxamide-PEG4CH2CO-Lys-NH2] (H-[dF][dY](Et)[dL][dK]-X29) | 0.0602 | 1008.6 |
| CCOc1ccc(C[C@@H](NC(=O)[C@H](N)Cc2ccccc2)C(=O)N[C@H](CC(C)C)C(=O)N[C@H](CCCCN)C(=O)N2CCC(N)(C(=O)NCCOCCOCCOCCOCC(=O)N[C@@H](CCCCN)C(=O)O)CC2)cc1 [Compound 40, D-Phe-D-Tyr(Et)-D-Leu-D-Lys-4-aminopiperidine-4-carboxamide-PEG4CH2CO-Lys-OH] (H-[dF][dY](Et)[dL][dK]-X27) | 0.058 | 1046.9 |
| CCOc1ccc(C[C@@H](NC(=O)[C@H](N)Cc2ccccc2)C(=O)N[C@H](CC(C)C)C(=O)N[C@H](CCCCN)C(=O)N2CCC(N)(C(=O)NCCOCCOCCOCCOCC(=O)N[C@H](CCCCN)C(N)=O)CC2)cc1 [Compound 41, D-Phe-D-Tyr(Et)-D-Leu-D-Lys-4-aminopiperidine-4-carboxamide-PEG4CH2CO-D-Lys-NH2] (H-[dF][dY](Et)[dL][dK]-X18) | 0.0596 | 1018.8 |
| CCOc1ccc(C[C@@H](NC(=O)[C@H](N)Cc2ccccc2)C(=O)N[C@H](CC(C)C)C(=O)N[C@H](CCCCN)C(=O)N2CCC(N)(C(=O)NCCOCCOCCOCCOCC(=O)N[C@H](CCCCN)C(=O)O)CC2)cc1 [Compound 42, D-Phe-D-Tyr(Et)-D-Leu-D-Lys-4-aminopiperidine-4-carboxamide-PEG4CH2CO-D-Lys-OH] (H-[dF][dY](Et)[dL][dK]-X8) | 0.0585 | 1037.9 |
| CCOc1ccc(C[C@@H](NC(=O)[C@H](N)Cc2ccccc2)C(=O)N[C@H](CC(C)C)C(=O)N[C@H](CCCCN)C(=O)N2CCC(N)(C(=O)NCCOCCOCCOCCOCCOCC(=O)N[C@@H](CCCCN)C(N)=O)CC2)cc1 [Compound 43, D-Phe-D-Tyr(Et)-D-Leu-D-Lys-4-aminopiperidine-4-carboxamide-PEG5CH2CO-Lys-NH2] | 0.0883 | 687.7 |
| CCOc1ccc(C[C@@H](NC(=O)[C@H](N)Cc2ccccc2)C(=O)N[C@H](CC(C)C)C(=O)N[C@H](CCCCN)C(=O)N2CCC(N)(C(=O)NCCOCCOCCOCCOCCOCC(=O)N[C@@H](CCCCN)C(=O)O)CC2)cc1 [Compound 44, D-Phe-D-Tyr(Et)-D-Leu-D-Lys-4-aminopiperidine-4-carboxamide-PEG5CH2CO-Lys-OH] | 0.0867 | 700.3 |
| CCOc1ccc(C[C@@H](NC(=O)[C@H](N)Cc2ccccc2)C(=O)N[C@H](CC(C)C)C(=O)N[C@H](CCCCN)C(=O)N2CCC(N)(C(=O)NCCOCCOCCOCCOCCOCC(=O)N[C@H](CCCCN)C(N)=O)CC2)cc1 [Compound 45, D-Phe-D-Tyr(Et)-D-Leu-D-Lys-4-aminopiperidine-4-carboxamide-PEG5CH2CO-D-Lys-NH2] | 0.0859 | 706.9 |
| CCOc1ccc(C[C@@H](NC(=O)[C@H](N)Cc2ccccc2)C(=O)N[C@H](CC(C)C)C(=O)N[C@H](CCCCN)C(=O)N2CCC(N)(C(=O)NCCOCCOCCOCCOCCOCC(=O)N[C@H](CCCCN)C(=O)O)CC2)cc1 [Compound 46, D-Phe-D-Tyr(Et)-D-Leu-D-Lys-4-aminopiperidine-4-carboxamide-PEG5CH2CO-D-Lys-OH] | 0.087 | 697.9 |
| CCOc1ccc(C[C@@H](NC(=O)[C@H](N)Cc2ccccc2)C(=O)N[C@H](CC(C)C)C(=O)N[C@H](CCCCN)C(=O)N2CCC(N)(C(=O)NCC(=O)N[C@@H](CCCCN)C(N)=O)CC2)cc1 [Compound 47, D-Phe-D-Tyr(Et)-D-Leu-D-Lys-4-aminopiperidine-4-carboxamide-Gly-Lys-NH2] (H-[dF][dY](Et)[dL][dK]-X14; N-terminus assumed) | 0.0439 | 1383.1 |
| CCOc1ccc(C[C@@H](NC(=O)[C@H](N)Cc2ccccc2)C(=O)N[C@H](CC(C)C)C(=O)N[C@H](CCCCN)C(=O)N2CCC(N)(C(=O)NCC(=O)N[C@@H](CCCCN)C(=O)O)CC2)cc1 [Compound 48, D-Phe-D-Tyr(Et)-D-Leu-D-Lys-4-aminopiperidine-4-carboxamide-Gly-Lys-OH] (H-[dF][dY](Et)[dL][dK]-X23) | 0.0432 | 1405.6 |
| CCOc1ccc(C[C@@H](NC(=O)[C@H](N)Cc2ccccc2)C(=O)N[C@H](CC(C)C)C(=O)N[C@H](CCCCN)C(=O)N2CCC(N)(C(=O)NCC(=O)N[C@H](CCCCN)C(=O)O)CC2)cc1 [Compound 50, D-Phe-D-Tyr(Et)-D-Leu-D-Lys-4-aminopiperidine-4-carboxamide-Gly-D-Lys-OH] (H-[dF][dY](Et)[dL][dK]-X26) | 0.0449 | 1352.3 |
| CCOc1ccc(C[C@@H](NC(=O)[C@H](N)Cc2ccccc2)C(=O)N[C@H](CC(C)C)C(=O)N[C@H](CCCCN)C(=O)N2CCC(N)(C(=O)NCC(=O)NCC(=O)N[C@@H](CCCCN)C(=O)O)CC2)cc1 [Compound 52, D-Phe-D-Tyr(Et)-D-Leu-D-Lys-4-aminopiperidine-4-carboxamide-Gly-Gly-Lys-OH] (I: H-[Api]GGK-OH / II: H-[dF][dY](Et)[dL][dK]; amide I:1-II:C) | 0.0485 | 1252.0 |
| CCOc1ccc(C[C@@H](NC(=O)[C@H](N)Cc2ccccc2)C(=O)N[C@H](CC(C)C)C(=O)N[C@H](CCCCN)C(=O)N2CCC(N)(C(=O)NCC(=O)NCC(=O)N[C@H](CCCCN)C(N)=O)CC2)cc1 [Compound 53, D-Phe-D-Tyr(Et)-D-Leu-D-Lys-4-aminopiperidine-4-carboxamide-Gly-Gly-D-Lys-NH2] (I: H-[Api]GG[dK]-NH2 / II: H-[dF][dY](Et)[dL][dK]; amide I:1-II:C; N-terminus assumed) | 0.0463 | 1311.4 |
| CCOc1ccc(C[C@@H](NC(=O)[C@H](N)Cc2ccccc2)C(=O)N[C@H](CC(C)C)C(=O)N[C@H](CCCCN)C(=O)N2CCC(N)(C(=O)NCC(=O)NCC(=O)NCC(=O)N[C@@H](CCCCN)C(N)=O)CC2)cc1 [Compound 55, D-Phe-D-Tyr(Et)-D-Leu-D-Lys-4-aminopiperidine-4-carboxamide-Gly-Gly-Gly-Lys-NH2] (H-[Api]([dK-dL-X12])GGGK-NH2; N-terminus assumed) | 0.0521 | 1165.5 |
